Laboratory results reported in the supplement of paper PMC12645437, “Orthogonal IMiD-Degron Pairs Induce Selective Protein Degradation in Cells” (ACS Chemical Biology, 2025).
The list shows a part of the results.

molecular target: no compound (DMSO); assay: log2 fold change of degron read counts, EGFP-low vs EGFP+ sorted cells; higher = lower degron-EGFP level without compound (poor expression or instability); conditions: compound: DMSO control; 18 h
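Further: jurkat cells carrying a lentiviral library of mutant zinc finger degrons fused to EGFP plus mCherry, mCherry+ cells FACS sorted, degron abundance counted by next-generation sequencing.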

Sequence	log2 fold change of degron read counts
LDCNQCGFWCTQKGNLLRHIKL	1.84
FICEICGHPFTQKGNLLRHIKL	-1.22
FKCEICGHMFTQKGNLLRHIKL	-2.31
FTCDICGAVFTQKGNLLRHIKL	-1.16
FCCPVCGAKFTQKGNLLRHIKL	-0.00342
FWCDICGAFFTQKGNLLRHIKL	0.64
FICEQCGAWFTQKGNLLRHIKL	-0.159
FSCDVCGAIFTQKGNLLRHIKL	-0.143
FWCPICGHPFTQKGNLLRHIKL	1.59
FFCNQCGATFTQKGNLLRHIKL	-0.0254
FYCNVCGAPFTQKGNLLRHIKL	0.216
FHCPQCGAIFTQKGNLLRHIKL	-0.0813
FECPQCGAWFTQKGNLLRHIKL	-1.55
LQCNQCGFICTQKGNLLRHIKL	0.134
FACDVCGAGFTQKGNLLRHIKL	-1.62
FWCNQCGRCFTQKGNLLRHIKL	0.98
FHCEVCGAQFTQKGNLLRHIKL	-2.28
FYCPICGHVFTQKGNLLRHIKL	-0.118
FMCNVCGACFTQKGNLLRHIKL	-0.8
FACPICGAVFTQKGNLLRHIKL	0.126
LWCNQCGFDCTQKGNLLRHIKL	1.06
FFCEVCGAAFTQKGNLLRHIKL	-0.912
FDCDVCGAHFTQKGNLLRHIKL	-1.48
FTCPICGANFTQKGNLLRHIKL	0.123
FECPICGARFTQKGNLLRHIKL	0.496

Sequence	log2 fold change of degron read counts
FHCEICGHHFTQKGNLLRHIKL	-0.766
FNCEQCGATFTQKGNLLRHIKL	-1.37
FMCEICGRSFTQKGNLLRHIKL	-1.35
LDCPICGFWCTQKGNLLRHIKL	1.61
LYCEICGFFCTQKGNLLRHIKL	1.63
FNCPQCGAIFTQKGNLLRHIKL	-0.329
FVCPVCGANFTQKGNLLRHIKL	-0.527
FKCDQCGAPFTQKGNLLRHIKL	-1.44
FKCPICGRWFTQKGNLLRHIKL	-0.0477
FFCEVCGACFTQKGNLLRHIKL	-1.24
FNCPVCGAEFTQKGNLLRHIKL	-0.735
FNCEICGAMFTQKGNLLRHIKL	-1.33
FICNQCGHWFTQKGNLLRHIKL	0.259
FMCPICGHIFTQKGNLLRHIKL	0.498
LNCNQCGFTCTQKGNLLRHIKL	0.0876
FLCEICGRFFTQKGNLLRHIKL	0.117
FLCNICGAWFTQKGNLLRHIKL	0.502
FICDVCGAGFTQKGNLLRHIKL	-1.23
FACNVCGAYFTQKGNLLRHIKL	-0.061
FSCNQCGRVFTQKGNLLRHIKL	0.194
FGCDQCGAVFTQKGNLLRHIKL	-1
FCCPQCGAGFTQKGNLLRHIKL	-0.821
FRCNVCGAMFTQKGNLLRHIKL	-0.32
FWCPICGAIFTQKGNLLRHIKL	1.41
FRCSVCGHQFTQKGNLLRHIKL	0.564
